Reference: article PMC11472340 (Journal of Medicinal Chemistry, 2024)
Converted amounts (≈) assume the structure as drawn.

What was measured:
GCDH WT [1] = molecular target: T1, GCDH WT (Homo sapiens, UniProt Q92947)
GCDH wild type (WT) [2] = molecular target: T2, GCDH wild type (WT) (Homo sapiens, UniProt Q92947)
GCDH WT [3] = molecular target: T1, GCDH WT; assay: biochemical; settings: read-out: relative enzymatic activity (% DMSO)
GCDH = GCDH (Homo sapiens, UniProt Q92947)
GCDH WT [4] = molecular target: T1, GCDH WT; remark: listed apart in the source
[5] = tested on: tested GCDH proteins (without MBP-tag)
GCDH wild type (WT) [6] = molecular target: T2, GCDH wild type (WT); assay: biochemical; settings: read-out: ΔTm GCDH WT

Row | SMILES | stability effect (ΔTm score) WT (GCDH wild type (WT) [2]) | remaining activity at 10 µM (GCDH WT [3]) [%] | ΔTm at 10 µM (GCDH wild type (WT) [6]) [°C] | ΔTm at 30 µM (GCDH wild type (WT) [6]) [°C] | ΔTm at 100 µM (GCDH wild type (WT) [6]) [°C] | also measured
1 | O=C(Nc1cccnc1)Nc1ccc(Cl)c(Cl)c1 [Compound A19] | 2 (key: scores of 1 given for ΔTm > 1 °C; 2 for ΔTm > 2 °C; 4 for ΔTm > 3 °C) | 122 ± 20 | – | – | – | ITC (Kd) (GCDH WT [1]): insoluble
2 | O=C(NCCN1CCCCCC1=O)Nc1cccnc1 [Compound A24] | – | – | – | – | – | General evaluation (GCDH): non-stabilizer
3 | CC(CO)NC(=O)Nc1ccc(I)cc1 (stereo not shown) [Compound A25] | 2 (key: scores of 1 given for ΔTm > 1 °C; 2 for ΔTm > 2 °C; 4 for ΔTm > 3 °C) | 117 ± 7 | – | – | – | General evaluation (GCDH): Stabiliser. Activator
4 | O=C(NCCO)Nc1ccc(Cl)c(Cl)c1 [Compound A29] | 1 (key: scores of 1 given for ΔTm > 1 °C; 2 for ΔTm > 2 °C; 4 for ΔTm > 3 °C) | 141 ± 11 | – | – | – | ITC (Kd) (GCDH WT [1]): no binding; increase of GCDH specific activity (GCDH WT [4]): over 41.2%; General evaluation (GCDH): Stabiliser. Activator
5 | Cc1ccc(CSC2=NS(=O)(=O)c3ccccc3N2)cc1 [Compound A34] | 4 (key: scores of 1 given for ΔTm > 1 °C; 2 for ΔTm > 2 °C; 4 for ΔTm > 3 °C) | 127 ± 4 | – | – | – | –
6 | O=S1(=O)N=C(SCc2cccnc2)Nc2ccc(Cl)cc21 [Compound A35] | 4 (key: scores of 1 given for ΔTm > 1 °C; 2 for ΔTm > 2 °C; 4 for ΔTm > 3 °C) | 104 ± 25 | – | – | – | ITC (Kd) (GCDH WT [1]): no binding
7 | N#CCC(=O)Nc1nnc(SCc2cccc3ccccc23)s1 [Compound A49] | – | – | – | – | – | solubility (physchem; pH 7, Solubility): 0.51 µM (≈ 0.174 µg/mL); solubility (physchem; pH 7.2, Solubility): 0.52 µM (≈ 0.177 µg/mL)
8 | COc1ccc2oc(=O)c(-c3ccc(OCC(=O)NCCc4cnc[nH]4)cc3)cc2c1 [Compound A52] | – | 124 ± 3 | – | – | – | –
9 | O=C(Nc1ccc(NC(=O)c2cccc(Cl)c2)cc1)c1cccnc1 [Compound A55] | 1 (key: scores of 1 given for ΔTm > 1 °C; 2 for ΔTm > 2 °C; 4 for ΔTm > 3 °C) | 127 ± 7 | – | – | – | ITC (Kd) (GCDH WT [1]): insoluble; effect on thermal stability, all tested GCDH proteins [5]: did not show significant thermal stability changes; General evaluation (GCDH): Stabiliser; solubility (physchem; pH 7, Solubility): 2.42 µM (≈ 0.851 µg/mL); solubility (physchem; pH 7.2, Solubility): 4.03 µM (≈ 1.42 µg/mL)
10 | O=C(NCCOc1cccc(Cl)c1Cl)c1ccccc1O [Compound A57] | – | 132 ± 10 | – | – | – | ITC (Kd) (GCDH WT [1]): insoluble
11 | O=C(CSc1nccc(=O)[nH]1)Nc1cccc(I)c1 [Compound A71] | – | – | – | – | – | solubility (physchem; pH 7, Solubility): 70.4 µM (≈ 27.2 µg/mL); solubility (physchem; pH 7, Solubility, assay buffer 1): 70.4 µM (≈ 27.3 µg/mL)
12 | CCOc1ccc(Nc2nc(Cc3nnc(SCc4ccc(C)cc4)o3)cs2)cc1 [Compound A77] | – | – | -0.08 | -0.02 | -0.37 | –
13 | O=C1CSC(Nc2ccc3ccccc3c2)=N1 [Compound A78] | – | – | -0.21 | -0.51 | – | –
14 | O=C(CN1C(=O)c2ccccc2S1(=O)=O)Nc1ccc(OCc2ccccc2)cc1 [Compound A79] | – | – | 0.82 | -3.99 | -4.13 | –
15 | Cc1nc2ccc(NC(=O)NCCO)cc2s1 [Compound A80] | – | – | -0.2 | -0.09 | -0.43 | –
16 | O=C(CCCc1nc(-c2ccccc2)no1)NC1CCCC1 [Compound A81] | – | – | -0.32 | 0.01 | -0.13 | –
17 | O=C(CN1C(=O)c2ccccc2S1(=O)=O)NCCSCc1ccccc1Cl [Compound A82] | – | – | -0.6 | -0.17 | -0.14 | –
18 | Cc1nonc1CNC(=O)CCc1nc2ccc(Cl)cc2[nH]1 [Compound A83] | – | – | -0.58 | – | -0.16 | –
19 | O=C(CSc1nccc(O)n1)Nc1cccc(F)c1 [Compound A84] | – | – | -0.09 | – | – | –
20 | Cc1nc(CNS(=O)(=O)Cc2ccc(Cl)c(Cl)c2)no1 [Compound A85] | – | – | -0.06 | 0.72 | -0.31 | –
21 | COc1ccccc1N1CC(NC(=O)CCc2nc3ccc(Cl)cc3[nH]2)CC1=O (stereo not shown) [Compound A86] | – | – | 0.16 | 2.43 | – | –

Row | SMILES | stability effect (ΔTm score) WT (GCDH wild type (WT) [2]) | remaining activity at 10 µM (GCDH WT [3]) [%] | ΔTm at 10 µM (GCDH wild type (WT) [6]) [°C] | ΔTm at 30 µM (GCDH wild type (WT) [6]) [°C] | ΔTm at 100 µM (GCDH wild type (WT) [6]) [°C] | also measured
22 | O=C(CSc1nc2ccccc2s1)NCC(=O)c1ccccc1 [Compound A87] | – | – | -0.02 | 0.2 | -1.36 | –
23 | COC(=O)c1ccccc1NC(=O)CSc1nnc(CNc2ccc(Cl)cc2)o1 [Compound A88] | – | – | – | 1.06 | -1.19 | –
24 | COc1cccc(CNc2cnc3ccccc3c2)c1O [Compound A89] | – | – | 0.44 | -0.24 | -1.21 | –
25 | Cc1nc2ccc(C(=O)NCC[S+](C)[O-])cc2s1 (stereo not shown) [Compound A90] | – | – | – | -0.04 | -0.28 | –
26 | O=C(CSc1nc2ccccc2o1)NCC(=O)c1ccccc1 [Compound A91] | – | – | 0.19 | -0.16 | -0.54 | –
27 | O=C(COc1ccccc1)Nc1nncs1 [Compound A92] | – | – | – | 0.09 | -0.27 | –
28 | CCc1nnc(NC2=NC(=O)CS2)s1 [Compound A93] | – | – | 0.73 | 0.03 | -0.55 | –
29 | O=C(Cn1nnc(-c2ccccc2-n2cnnn2)n1)Nc1cccc(Cl)c1 [Compound A94] | – | – | 0.63 | -0.51 | -1.64 | –
30 | O=C(Cc1ccc2ccccc2c1)Nc1cccnc1 [Compound B12] | – | 115 ± 19 | – | – | – | ITC (Kd) (GCDH WT [1]): no binding
31 | O=S1(=O)NC(CN2CCCc3cc(F)cc(F)c32)=Nc2ccccc21 [Compound B14] | 1 (key: scores of 1 given for ΔTm > 1 °C; 2 for ΔTm > 2 °C; 4 for ΔTm > 3 °C) | 111 ± 4 | – | – | – | ITC (Kd) (GCDH WT [1]): insoluble
32 | CN(CC1=Nc2ccccc2S(=O)(=O)N1)c1ccccc1 [Compound B15] | 2 (key: scores of 1 given for ΔTm > 1 °C; 2 for ΔTm > 2 °C; 4 for ΔTm > 3 °C) | 112 | – | – | – | –
33 | O=C(Nc1ccc(Cl)c(Cl)c1)Nc1cnc2ccccc2c1 [Compound B29] | 2 (key: scores of 1 given for ΔTm > 1 °C; 2 for ΔTm > 2 °C; 4 for ΔTm > 3 °C) | 134 ± 4 | – | – | – | ITC (Kd) (GCDH WT [1]): insoluble; ΔTm GCDH WT at the lowest concentrations tested (GCDH wild type (WT) [2]): ≥ 2 °C; effect on thermal stability, all tested GCDH proteins [5]: did not show significant thermal stability changes
34 | O=C(Nc1ccc(Cl)c(Cl)c1)Nc1cccc2cccnc12 [Compound B30] | 4 (key: scores of 1 given for ΔTm > 1 °C; 2 for ΔTm > 2 °C; 4 for ΔTm > 3 °C) | 124 ± 8 | – | – | – | ΔTm GCDH WT at the lowest concentrations tested (GCDH wild type (WT) [2]): ≥ 2 °C; General evaluation (GCDH): Stabiliser. Activator
35 | O=C(Nc1ccc(Cl)c(Cl)c1)Nc1cccnc1Cl [Compound B31] | 4 (key: scores of 1 given for ΔTm > 1 °C; 2 for ΔTm > 2 °C; 4 for ΔTm > 3 °C) | 147 ± 5 | – | – | – | increase of GCDH specific activity (GCDH WT [4]): > 47.1%; solubility (physchem; pH 7, Solubility): 0.93 µM (≈ 0.294 µg/mL)
36 | Cc1ccnc(NC(=O)Cc2ccc(Cl)cc2)c1 [Compound B34] | – | 152 ± 13 | – | – | – | ITC (Kd) (GCDH WT [1]): no binding; increase of GCDH specific activity (GCDH WT [4]): > 51.8%
37 | COc1cc2ccccc2cc1C(=O)NCCc1ccccc1 [Compound B37] | – | 140 ± 13 | – | – | – | –
38 | CC(Sc1nncs1)C(=O)Nc1nc(-c2ccc(Cl)c(Cl)c2)cs1 (stereo not shown) [Compound B40] | 4 (key: scores of 1 given for ΔTm > 1 °C; 2 for ΔTm > 2 °C; 4 for ΔTm > 3 °C) | 119 ± 10 | – | – | – | ITC (Kd) (GCDH WT [1]): insoluble
39 | Nc1cc(NC(=O)c2cccc(Cl)c2)cc(Oc2cccnc2)c1 [Compound B47] | 2 (key: scores of 1 given for ΔTm > 1 °C; 2 for ΔTm > 2 °C; 4 for ΔTm > 3 °C) | 122 ± 10 | – | – | – | ΔTm GCDH WT at the lowest concentrations tested (GCDH wild type (WT) [2]): ≥ 2 °C
40 | CCc1ccc2nc(NC(=O)c3ccc(O)c(O)c3)sc2c1 [Compound B49] | 4 (key: scores of 1 given for ΔTm > 1 °C; 2 for ΔTm > 2 °C; 4 for ΔTm > 3 °C) | 2.6 ± 2.3 | – | – | – | ITC (Kd) (GCDH WT [1]): insoluble; ΔTm GCDH WT at the lowest concentrations tested (GCDH wild type (WT) [2]): ≥ 2 °C
41 | O=C(Nc1cccc(Cl)c1)Nc1cccc(Cl)c1 [Compound B56] | 4 (key: scores of 1 given for ΔTm > 1 °C; 2 for ΔTm > 2 °C; 4 for ΔTm > 3 °C) | 113 ± 5 | – | – | – | ΔTm GCDH WT at the lowest concentrations tested (GCDH wild type (WT) [2]): ≥ 2 °C; General evaluation (GCDH): Stabiliser. Activator
